Data published in paper PMC4222603, “Dual inhibition of HIV-1 replication by integrase-LEDGF allosteric inhibitors is predominant at the post-integration stage” (Retrovirology, 2013).

Assays:
IN NL4-3 A128T = target: T1, IN NL4-3 A128T (Human immunodeficiency virus type 1 group M subtype B, UniProt P12497, A1275T); set-up: species or system HIV-1; details: pre-incubation with 100 μM compound
T1 construct: loaded on a Superdex 200 16/600 PG column (for full length IN); made in house

IN-CCD T174I = IN-CCD T174I (Human immunodeficiency virus type 1 group M subtype B, UniProt P12497, F1332K/T1321I); details: SPR, 1.3 μM to 5.0 μM

## Cc1nc2c(c(-c3ccc4c(c3)CCCO4)c1C(OC(C)(C)C)C(=O)O)CCCC2 (centres unmarked) [Mut101, 2-(tert-butoxy)-2-[4-(3,4-dihydro-2H-1-benzopyran-6-yl)-2-methyl-5,6,7,8-tetrahydroquinolin-3-yl]acetic acid]
IN NL4-3 A128T
  Effect on IN A128T oligomerization state (SEC): shift from IN dimer (blue peaks) toward IN tetramer
IN-CCD T174I
  Binding to mutated IN-CCD T174I: no significant binding
